Assay [1] addresses T1, Human VSIG4-L-His (human, UniProt Q9Y279 20-283).
T1 construct: long isoform ECD with His tag; also called hVSIG4-L
T1 sequence: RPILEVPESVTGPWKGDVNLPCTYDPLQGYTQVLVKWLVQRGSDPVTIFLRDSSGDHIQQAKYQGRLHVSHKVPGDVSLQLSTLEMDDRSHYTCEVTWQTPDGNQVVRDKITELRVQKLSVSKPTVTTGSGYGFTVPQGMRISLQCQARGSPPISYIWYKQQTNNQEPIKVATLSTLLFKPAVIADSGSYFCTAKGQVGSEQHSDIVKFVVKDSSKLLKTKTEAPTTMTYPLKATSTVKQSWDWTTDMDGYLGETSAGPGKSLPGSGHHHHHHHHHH
The assay is described as follows: BLI, IgG on AHC sensor, antigen 100 nM. (BLI is a label-free optical method that tracks binding on a fibre tip over time.)

Assay [2] has as its target T2, Cynomolgus Monkey VSIG4-L-His (cynomolgus monkey).
T2 construct: ECD with His tag; also called cyVSIG4-L; cyno VSIG4-L-His
T2 chain: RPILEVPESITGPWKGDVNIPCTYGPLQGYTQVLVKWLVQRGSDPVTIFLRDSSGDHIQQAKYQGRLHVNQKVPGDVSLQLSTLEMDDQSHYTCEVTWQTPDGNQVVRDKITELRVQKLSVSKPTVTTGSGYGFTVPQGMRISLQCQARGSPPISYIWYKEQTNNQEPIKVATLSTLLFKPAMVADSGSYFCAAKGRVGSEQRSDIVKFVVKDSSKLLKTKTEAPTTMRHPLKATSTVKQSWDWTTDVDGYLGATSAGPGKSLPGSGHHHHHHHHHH
The assay is described as follows: BLI, IgG on AHC sensor, antigen 100 nM.

Substitutions are numbered along the chain they refer to. Names and notes keep the numbering of the source.

B1: h16E10.B humanized IgG4 (S228P) kappa (antibody)
heavy: QVQLVQSGAEVKKPGASVKVSCKASGYTFTNYWLGWVRQAPGQGLEWIGDIYPGGGYTNYNEKFQGRVTLTADTSSSTAYMELSSLRSEDTAVYFCAKFYYYGSSYYFDSWGQGTTVTVSSASTKGPSVFPLAPCSRSTSESTAALGCLVKDYFPEPVTVSWNSGALTSGVHTFPAVLQSSGLYSLSSVVTVPSSSLGTKTYTCNVDHKPSNTKVDKRV[human IgG4 Fc with S228P (EU numbers) not printed]
light: DIVMTQSPDSLAVSLGERATINCKSSQSLLNSGNQENYLAWYQQKPGQPPKLLIYGASTRESGVPDRFSGSGSGTDFTLTISSLQAEDVAVYYCQNDHSYPLTFGGGTKLEIKRTVAAPSVFIFPPSDEQLKSGTASVVCLLNNFYPREAKVQWKVDNALQSGNSQESVTEQDSKDSTYSLSSTLTLSKADYEKHKVYACEVTHQGLSSPVTKSFNRGEC
Turning to B1, the “KD relative to parental chimera” value in assay [1] was 1.4 fold; in assay [2], 1 fold.

B2: h16E10.A humanized IgG4 (S228P) kappa (antibody)
heavy: B1 heavy
light: B1 light with M4L
Take B2: the results for the “KD relative to parental chimera” value in assay [1] and in assay [2] were 1 fold and 1.4 fold, respectively.

Source of the values: US20230348603A1 (VERSEAU THERAPEUTICS, published 2023).
